Data from patent publication US20220389066A1, “POLYPEPTIDES” (Affibody AB, priority 2019, published 2022).

Columns and labels:
HMGB1(red) = biological target: T1, HMGB1(red) (Rattus norvegicus, UniProt P63159); test: SPR binding specificity study, HMGB1(red); details: analyte HMGB1(red); 1.5 mM DTT; captured on HSA
T1 construct: purchased HMGBiotech Srl, Milano, Italy
T1 sequence (P63159 1-215): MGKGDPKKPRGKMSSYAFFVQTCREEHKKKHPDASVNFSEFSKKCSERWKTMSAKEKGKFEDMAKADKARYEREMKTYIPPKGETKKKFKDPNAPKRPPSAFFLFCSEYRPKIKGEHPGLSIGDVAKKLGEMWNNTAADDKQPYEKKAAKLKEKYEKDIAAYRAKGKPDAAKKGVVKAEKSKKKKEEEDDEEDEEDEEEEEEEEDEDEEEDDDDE
Description: HSA (Albucult®, Novozyme) was diluted to 10 μg/ml in acetate, pH 4.0, and immobilized onto a CM5 sensor chip using a Biacore 2000 instrument. Immobilization was performed by amine chemistry, using amine coupling kit, according to the manufacturer's instructions. The first surface of each chip was activated and deactivated for use as a reference cell (blank surface) during analyte injections. HBS-EP was used as running buffer, supplemented with 1.5 mM DTT when analyzing the binding to HMGB1(red). ZZA4263 was injected at a concentration of 100 nM for 4 minutes over the HSA and the reference sensor chip surfaces at a constant flow rate of 30 μl/min. This was followed by 4 minutes' injection of 0, 8.3, 25, 75, 225 and 675 nM of HMGB1(red), HMGB1(disulfide), HMGB2 (Biorbyt, cat. no. orb180287), HMGB3 (Biorbyt, cat. no. orb180288), SP100 (Biorbyt, cat. no. orb169341), TNF (R&D Systems, cat. no. 210-TA), IL-6 (R&D Systems, cat. no. 206-IL) and IL-1β (R&D Systems, cat. no. 201-LB/CF), respectively. The proteins were allowed to dissociate for 20 minutes before the chip surfaces were regenerated by two 10 second pulses using 10 mM HCl. The reference surface and the buffer sample were subtracted from all curves. The buffer sample was subtracted to adjust for the dissociation of ZZA4263 from HSA. […]

[1] = biological target: T2, HMGB1-CXCL12 complex binding to CXCR4 (Rattus norvegicus, UniProt P63159); test: cAMP Hunter eXpress CXCR4 CHO-K1 GPCR Assay; format: cell-based; details: ZZA4263 1000 nM-0.0006 nM; HMGB1 10 nM; CXCL12 0.4 nM; 30 min
T2 construct: purchased HMGBiotech HM001; host or cells: cAMP CHO-K1 CXCR4 eXpress cells (DiscoverX 95-0081E2)
T2 sequence (P63159 2-215): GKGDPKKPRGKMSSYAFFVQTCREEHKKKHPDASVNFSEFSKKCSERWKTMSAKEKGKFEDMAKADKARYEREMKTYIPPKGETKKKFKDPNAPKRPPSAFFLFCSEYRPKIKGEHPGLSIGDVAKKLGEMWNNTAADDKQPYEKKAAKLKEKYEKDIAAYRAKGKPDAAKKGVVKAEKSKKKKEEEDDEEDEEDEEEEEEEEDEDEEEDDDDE
Description: cAMP Hunter eXpress CXCR4 CHO-K1 GPCR Assay kit with reagents was obtained from DiscoverX (cat no 95-0081E2CP2L). cAMP CHO-K1 CXCR4 eXpress cells (DiscoverX, cat no: 95-0081E2) were thawed and seeded into a white 96-well plate, with clear bottom, in 100 μl AssayComplete Cell Plate 2 Reagent. The cells were cultured overnight at 37° C., 5% CO2.
On the day of the experiment, dilution of HMGB1 (HMGBiotech, cat no: HM001), CXCL12 (DiscoverX, cat no: 92-1011) and ZZA4263 (SEQ ID NO: 48) was performed in a separate dilution plate. First, a serial dilution of HMGB1 (200 nM-0.3 nM) in Cell Assay Buffer with forskolin and tris(2-carboxyethyl)phosphine hydrochloride (TCEP; Sigma-Aldrich) was performed and incubated with CXCL12 at RT for 15 min. Second, a serial dilution of ZZA4263 (1000 nM-0.0006 nM) in PBS was performed and incubated with HMGB1 (10 nM) and CXCL12 (0.4 nM) in Cell Assay Buffer with forskolin and TCEP at RT for 15 min. Cell medium was removed from cells and 30 μl Cell Assay Buffer was added together with 15 μl HMGB1, CXCL12 and ZZA4263 dilutions. Cells were incubated at 37° C., 5% CO2 for 30 min. cAMP standard was serially diluted and added to the plate after the incubation. All Cell Assay Buffer was removed from the cells and 45 μl of fresh Cell Assay Buffer was added to each well. […] The luminescence was measured in a 96-well plate reader (Enspire).

B1: ZZA4263: heterodimer ZH27/ZH32, format Z(boxB)-L2-Z(boxA)-ABD (protein)
chain: AEAKYAKEAWLAEQEIWQLPNLTEAQFQAFILKLIDDPSQSSELLSEAKKLNDSQAPKGAPGGGGSTSAEAKYAKEDWDAFWEIIWLPNLTDAQQRAFIYKLEDDPSQSSELLSEAKKLNDSQAPKASGSLAEAKEAANAELDSYGVSDFYKRLIDKAKTVEGVEALKDAILAALP
modifications: Engineered HMGB1 binding polypeptide
notes: heterodimer ZH27/ZH32, format Z(boxB)-L2-Z(boxA)-ABD
ka (HMGB1(red)): 1.3e+06 M⁻¹ s⁻¹
kd (HMGB1(red)): 0.00015 s⁻¹
inhibition of binding of the HMGB1-CXCL12 complex to CXCR4 (return of luminescent signal) [1]: inhibit the binding of the HMGB1-CXCL12 complex to CXCR4 in a dose dependent manner
